Data on 78 molecules can be found in article PMC12040169 (PLOS Biology, 2025).

The list shows a part of the results.

The test system of this experiment is T1, C. trachomatis L2/434/Bu expressing GFP (CTL2-GFP).
T1 construct: L2/434/Bu GFP intracellular growth in HeLa cells
Details: species or system HeLa; C. trachomatis total inclusion area by high-content imaging, normalised to DMSO. Conditions: total inclusion area; 28.5 h, 10 µM; inhibitor. In short, it runs like this:
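Bulk GFP and resorufin signals were read first. Wells were then fixed, stained with Hoechst and imaged to detect GFP inclusions and host nuclei. MICs followed the previously described calculation.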
`CC(=O)Nc1ccc(-c2csc(Nc3ccc(S(=O)(=O)Nc4nc(C)cc(C)n4)cc3)n2)cc1` [CBK267295]: the “% of control remaining” value was 86.7966.

As to `N#Cc1ccc(CNC(=O)N2CCN(Cc3ccccc3)CC2)cc1` [CBK155637], the “% of control remaining” value came to 98.1554.

In the case of `COc1ccc(Cl)cc1NS(=O)(=O)N(C)C` [CBK025794], the “% of control remaining” value amounted to 76.1476.

On to `CCCSc1ccc2[nH]c(NC(=O)CSc3nc[nH]n3)nc2c1` [CBK270181], for which the “% of control remaining” value was 13.6568.

As for `Cc1ccc(C2(O)CCN(CCNC(=O)C3CCCC3)CC2)cc1` [CBK282606], the “% of control remaining” value is recorded as 115.768.

Turning to `Cc1nc(NS(=O)(=O)Cc2ccccc2)sc1C(=O)O` [CBK045552], the “% of control remaining” value came out at 93.1779.

Regarding `O=C(O)c1cccc(-n2c(S)nnc2-c2ccncc2)c1` [CBK269260], the “% of control remaining” value is 97.2929.

In the case of `Nc1nc(OCc2ccccc2)cnc1-c1cccc(C(F)(F)F)c1` [CBK145179], the “% of control remaining” value came out at 105.264.

On to `COc1ccccc1N1CCN(CC2CN(c3ccccc3)c3ccccc3O2)CC1` (stereo not drawn) [CBK066872C], for which the “% of control remaining” value is given as 65.9959.

Regarding `CCOc1ccccc1C(=O)Nc1cnc(-c2cccc(C)c2)c(-c2ccc(N)cc2)n1` [CBK036783], the “% of control remaining” value came to 133.707.

With `Cc1ccc2nc(-c3ccc4c(c3)CCN4S(C)(=O)=O)cn2c1` [CBK285185], the “% of control remaining” value was 109.38.

With `CSc1cccc(C(=O)Nc2sc3c(c2C#N)CCN(C(C)=O)C3)c1` [CBK304390], the “% of control remaining” value is given as 3.276.

Regarding `CC(=O)NC[C@H]1C[C@@H]2CCN1C[C@@H]2c1cc(-c2ccco2)nc(C)n1` [CBK289128], the “% of control remaining” value was 83.5414.

With `CCOc1ccc(C(=O)Nc2nonc2CC)cc1` [CBK287287], the “% of control remaining” value is on record as 87.0365.

As for `O=c1[nH]ccn1CCNc1cc(-c2ccccc2Oc2ccccc2)ncn1` [CBK036966], the “% of control remaining” value is given as 59.0094.

In the case of `Cc1noc(C)c1CCC(=O)NCc1cccc(C#N)c1` [CBK305938], the “% of control remaining” value came out at 68.7725.

Take `CN(C)c1cccc(-c2cnc3[nH]c(=O)n(-c4ccc5[nH]ccc5c4)c3n2)c1` [CBK064682]: the “% of control remaining” value stood at 103.512.

Regarding `CN1C(=O)COC[C@@H]1[C@H](O)c1ccc(NC(=O)C2CC2)cc1` [CBK289057], the “% of control remaining” value worked out at 104.031.

On to `COCCNC(=O)c1ccc(-c2ccccc2C)nc1NC(C)=O` [CBK106325], for which the “% of control remaining” value was 104.189.

For `CC1(C)CC(=O)c2sc(NC(=O)c3cncnc3)nc2C1` [CBK144107], the “% of control remaining” value turned out to be 94.8046.

For `O=C(c1ccco1)N1CCN(c2cc(-c3ccc(OCc4ccccc4)cc3)ncn2)CC1` [CBK037844], the “% of control remaining” value stood at 80.9693.

With `COc1ccccc1/C=N/C12CN3CN(CN(C3)C1)C2` [CBK261387], the “% of control remaining” value stood at 97.582.

As to `Cc1c(C(=O)Nc2ccc(S(=O)(=O)N(C)Cc3ccccc3)cc2)cccc1[N+](=O)[O-]` [CBK267534], the “% of control remaining” value was 84.5509.

As to `COC(=O)[C@@H]1Cc2ncn(C(C)C)c2CN1S(=O)(=O)c1ccc([N+](=O)[O-])cc1` [CBK288985], the “% of control remaining” value is listed as 96.8545.

Regarding `Cc1ccc(S(=O)(=O)NCCNc2ccc([N+](=O)[O-])cc2C(F)(F)F)cc1` [CBK265140], the “% of control remaining” value was determined as 70.6574.

In the case of `CC(CNC(=O)C1CCCC1)N1CCc2ccccc2C1` (stereo not drawn) [CBK304555], the “% of control remaining” value stood at 23.6533.

On to `O=C(NC1Cc2ccccc2C1)c1cccc(-c2ccc(CC3CCCNC3=O)cc2)c1` (stereo not drawn) [CBK285579], for which the “% of control remaining” value is listed as 93.2757.

In the case of `Cc1[nH]c(=O)[nH]c(=S)c1C(=O)NCc1ccc(Cl)cc1` [CBK115489], the “% of control remaining” value was determined as 88.8857.

As to `O=C(Nc1ccccc1)Nc1ccc2c(c1)S(=O)(=O)c1cc(NC(=O)Nc3ccccc3)ccc1-2` [CBK262320], the “% of control remaining” value was determined as 73.6812.

In the case of `O=C(CSc1n[nH]c(=O)[nH]c1=O)N/N=C/c1ccc(O)cc1` [CBK263488], the “% of control remaining” value worked out at 102.314.

On to `O=C(c1ccc([N+](=O)[O-])cc1)C12CN3CN(CN(C3)C1)C2` [CBK011238], for which the “% of control remaining” value is reported as 103.396.

As to `CSc1cccc(NC(=O)CN(C)S(=O)(=O)c2ccc3ccccc3c2)c1` [CBK266708], the “% of control remaining” value is 77.0252.

Take `CN(C)S(=O)(=O)n1cc(/C=C/c2nc(N)nc(-c3ccccc3O)n2)c2ccccc21` [CBK268386]: the “% of control remaining” value turned out to be 86.4219.

In the case of `CCNC(=S)N[C@@H]1CC[C@@]2(Cc3ccc(OC)c(OC)c3)CCN(C)[C@H]2C1` [CBK023811], the “% of control remaining” value was determined as 71.1089.

On to `O=C(Cc1ccccc1)Nc1ncc(Cc2ccccc2)s1` [CBK287322], for which the “% of control remaining” value came to 116.712.

With `Cc1cnccc1-c1cn(C)nc1-c1ccc(CNC(=O)c2cccc(N(C)C)c2)cc1` [CBK285633], the “% of control remaining” value came out at 109.634.

Take `CCC(=O)N[C@H](CC)Cn1ncc2ccccc2c1=O` [CBK284303]: the “% of control remaining” value was determined as 93.0716.

As for `O=c1sc(Nc2ccccc2)nc2ccsc12` [CBK287853], the “% of control remaining” value is on record as 45.5528.

On to `Cc1cc(/C=C2/C(=N)N3N=C(Cc4ccccc4)SC3=NC2=O)c(C)n1-c1ccccc1` [CBK264318], for which the “% of control remaining” value was found to be 100.238.

`CSCCC(=O)NCCc1c[nH]c2ccc(Cl)cc12` [CBK159775]: the “% of control remaining” value is recorded as 109.317.

As to `COc1cc(CNc2nc(-c3ccc(C(C)(C)C)cc3)cn3ccnc23)cc(OC)c1OC` [CBK066615], the “% of control remaining” value is reported as 94.2241.

As for `c1ccc(CCNc2cc(-c3cccc4ccccc34)ncn2)nc1` [CBK037762], the “% of control remaining” value came out at 82.4873.

As for `CCc1noc(C)c1C(=O)N1CCN(C2CCCC2O)CC1` (stereo not drawn) [CBK304869], the “% of control remaining” value is 57.5192.

On to `Cc1cc2nccc([C@H]3CC[C@H](CNC(=O)C(C)C)CC3)n2n1` [CBK283475], for which the “% of control remaining” value came to 88.4652.

For the molecule `O=C(NC(=S)Nc1cccc(-c2nc3ncccc3o2)c1)c1ccc(-c2cccc([N+](=O)[O-])c2)o1` [CBK267870], the “% of control remaining” value worked out at 125.035.

As to `Cc1ccc(NC(=O)CN2C(=O)S/C(=C\c3cc(C)n(-c4cccc(C(=O)O)c4)c3C)C2=O)cc1` [CBK264725], the “% of control remaining” value turned out to be 115.096.

Regarding `O=C(O)CCC(=O)NNC(=O)c1cccc(O)c1` [CBK262116], the “% of control remaining” value was determined as 97.3392.

Regarding `Cc1ncsc1C(=O)N1CCC(c2cccc(Cc3ccccc3Cl)n2)CC1` [CBK286146], the “% of control remaining” value came out at 77.8595.

`COc1cc2c(cc1OC)CN(C(=O)c1cncnc1)CC2` [CBK122748]: the “% of control remaining” value came out at 82.8573.

In the case of `CC1=C[C@@H](CNC(=O)Nc2ccccc2)[C@H](C(C)C)C[C@H]1CC(=O)N1CCN(C)CC1` [CBK289048], the “% of control remaining” value turned out to be 78.3511.

With `COC1C(O)=CC(=O)OC1(CCc1ccco1)CCc1ccco1` (stereo not drawn) [CBK001858], the “% of control remaining” value came out at 134.708.

As for `O=S(=O)(O)c1cc(S(=O)(=O)O)c2cc(O)c(S(=O)(=O)O)cc2c1` [CBK278319N], the “% of control remaining” value turned out to be 89.9854.

For the molecule `Cc1nn(C(C)C(=O)Nc2cc(C(F)(F)F)ccc2Cl)c(C)c1[N+](=O)[O-]` (stereo not drawn) [CBK268697], the “% of control remaining” value is recorded as 99.018.

With `O=C(Cc1ccccc1)Nc1nnc(Cc2ccc3c(c2)OCCO3)o1` [CBK287661], the “% of control remaining” value amounted to 87.4196.

Turning to `COCCCNC(=O)Cn1c(-c2cccs2)cc2cccnc21` [CBK282559], the “% of control remaining” value was 120.027.

On to `O=C(NC1CCCC1)c1ccc(=O)[nH]c1` [CBK058093], for which the “% of control remaining” value was found to be 71.108.

As for `CCC(CN1CCCC1)NC(=O)C1CC(=O)Nc2ccccc21` (stereo not drawn) [CBK282757], the “% of control remaining” value is 119.517.

Take `COc1ccc(S(=O)(=O)NC(CCSC)c2nnc3ccccn23)cc1` (stereo not drawn) [CBK304402]: the “% of control remaining” value is 67.0509.

With `COc1ccccc1-c1ccccc1CN(C)Cc1ccccc1N1CCOCC1` [CBK286000], the “% of control remaining” value was 98.136.

With `COc1ccc(C2(CNC(C)(C)CN)CCCC2)cc1OC` [CBK008989], the “% of control remaining” value is listed as 3.209.

As to `O=C(COc1ccccc1[N+](=O)[O-])Nc1cc(C(=O)O)cc(C(=O)O)c1` [CBK263983], the “% of control remaining” value worked out at 104.626.

As to `O=C(O)c1ccc(OCC(O)Cn2nnc3ccccc32)cc1` (stereo not drawn) [CBK286616], the “% of control remaining” value stood at 95.0036.

For `O=C(c1ccco1)N1CCN(C2C3CCCC2CNC3)CC1` (stereo not drawn) [CBK284992], the “% of control remaining” value came out at 115.34.

`Cc1oc2c(c1C(=O)NCC(=O)NCC(=O)O)CCCC2` [CBK264015]: the “% of control remaining” value was 105.766.

As to `O=C(CN1CCC(O)(c2ccccc2F)CC1)N1CCCCC1` [CBK281938], the “% of control remaining” value came to 81.8569.

For `COc1cc(Br)cc(C2NC(=O)c3cnc(SC)nc3N2)c1O` (stereo not drawn) [CBK291179], the “% of control remaining” value came to 115.773.

With `NC(=O)CN1CC2(CCN(Cc3cccc4cccnc34)CC2)c2ccccc21` [CBK137021], the “% of control remaining” value is on record as 71.8499.

For the molecule `Cc1ccc(NC(=O)N(CCC#N)C2CCCCC2)cc1` [CBK156381], the “% of control remaining” value came out at 98.9789.

`COc1ccc(C(=O)c2sc3nc(C)c(C)c(C)c3c2N)cc1OC` [CBK074427]: the “% of control remaining” value came to 89.9601.

In the case of `COCCNc1nc(-c2ccc3[nH]ccc3c2)ccc1C(=O)N1CCN(C)CC1` [CBK105956], the “% of control remaining” value is on record as 93.4156.

With `CCc1nn(C)c2[nH]nc(NC(=O)Cc3csc(C)n3)c12` [CBK305538], the “% of control remaining” value amounted to 11.4528.

With `CC(C)CCCC(C)NC(=O)COc1cc(C(=O)O)cc(C(=O)O)c1` (stereo not drawn) [CBK296646], the “% of control remaining” value is recorded as 115.257.

Take `CCn1c(C)nc2cc(NC(=O)c3oc(C)nc3C)ccc21` [CBK281881]: the “% of control remaining” value was determined as 114.105.

Take `COc1cc(/C=C/C(=O)O)ccc1OCC(=O)Nc1ccccc1` [CBK265695]: the “% of control remaining” value turned out to be 118.391.

`CCCCc1ccc(NC(=O)Nc2ccc3ccc(Cl)nc3n2)cc1` [CBK063259]: the “% of control remaining” value is given as 66.0983.

For the molecule `CC(=O)N1CCC(c2nc(Cc3cccs3)no2)C1` (stereo not drawn) [CBK282998], the “% of control remaining” value came to 91.4862.

On to `Cc1cc(C(=O)Nc2ccc([C@@H](O)[C@H]3COCC(=O)N3Cc3ccccc3)cc2)n(C)n1` [CBK289669], for which the “% of control remaining” value was determined as 110.293.

For `Cc1cc2c(=O)n(Cc3ccco3)c(SCc3cc(O)[nH]n3)nc2s1` [CBK268291], the “% of control remaining” value was determined as 125.705.
